# Measurements reported in publication PMC10726135.
# Some of the results follow. At the low end of the ranking the order means little. The protein was read in a cell extract, so binding may be indirect.
# Molecular target: T1, HNF4alpha8 (COS-7 nuclear extract) (UniProt P41235-5)
# T1 sequence: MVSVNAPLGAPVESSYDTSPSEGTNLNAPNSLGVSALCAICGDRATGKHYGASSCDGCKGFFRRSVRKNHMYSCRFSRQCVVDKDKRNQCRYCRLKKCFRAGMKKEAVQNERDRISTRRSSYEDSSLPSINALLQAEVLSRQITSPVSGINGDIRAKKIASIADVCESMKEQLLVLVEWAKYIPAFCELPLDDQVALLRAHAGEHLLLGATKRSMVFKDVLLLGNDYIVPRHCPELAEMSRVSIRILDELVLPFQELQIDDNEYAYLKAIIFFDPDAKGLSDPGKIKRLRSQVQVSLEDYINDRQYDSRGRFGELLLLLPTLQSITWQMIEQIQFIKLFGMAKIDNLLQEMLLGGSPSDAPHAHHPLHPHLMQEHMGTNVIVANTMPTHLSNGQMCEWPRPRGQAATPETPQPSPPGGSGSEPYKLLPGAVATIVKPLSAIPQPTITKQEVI
# Test: protein-binding microarray
# Conditions: COS-7 nuclear extract on double-stranded Agilent 4x180k PBM; binding buffer, salt, pH and temperature not given; high values mean tight binding; double strand, one strand shown; sequences stand for … in …GCCTAGGGAGATTAGAGTATCGGTCGA
row,Sequence,binding signal (log2 normalized intensity)
1,AATTAAGGAGATTTGGCTTTGAATTCCACT,-1.3
2,AAAAACACTCAGTTAATTATGGTAGAGCTA,-1.39
3,GGAGGGTGAAGGTCACAATTTCCAGGAGTA,3.15
4,AATTCTCATTCATCCAAGGACTTTGTAATC,3.57
5,CTCTGGCCAGAGAGATGTCAGCCCAAGATA,3.25
6,GCCACTGGTTAGTTCCAAAGGACAAATCTC,1.53
7,TGATCTGGTTTTTGTTGTTGAGCAAATCAT,1.23
8,ATTACTGAAGTTCCAGAGCCTTCAAAGGAA,-1.23
9,CCACCTGCCCCAGGAATGCCTTTTCTTTCA,1.51
10,CAGTCACTCATGAGCCATCCTGAACAAATG,-1.2
11,AAGCCACAGAGATCAGAATCATAAAGCAGG,-1.28
12,TGGATTCGCCCAGCATAGCACACCAGCTCT,-1.45
13,CCAGTTATTCATGTCCCTACCACATACAGA,1.38
14,GCTATGATTGCGCCACTGCATTCCAGCCTG,-1.26
15,CAATCCCCCATCTATTTACAAAAGACCAGA,2.41
16,CCCTTCTGTCAAGTCCAAAGTTCTTGGCCA,4.31
17,CCTGTCACCTCCCTCAGAGCTCAGATGAAC,0.526
18,CTTTAAGTAGGCACTATTATCCCCCTATCC,3.58
19,GGATTAAAGAATTCGTCCAGGGCCGCCCAA,-1.32
20,GCTCTGCTACTGACCAGATGTTATTACTTA,0.449
21,TAACTGTGCTTCTGGGGTATAAAGGTCAGG,5.86
22,GGGTCCTGGCAGCACCTGAAGAATTTGGAC,1.76
23,GCGGGGAAAAGGGAGTAAAGGTCACGCAGG,5
24,GTTCTGTGGAATTTGTGCTTATTTCCCATC,1.78
25,GGCTCCCAGTGGCCCCTGAGCACTGTCTCA,-1.14

row,Sequence,binding signal (log2 normalized intensity)
1,GCTGTGATGAGGCCAGCAGGGTGCCCCCTC,3.81
2,ATCTCTTTGACACAAAGGGAGGCCTAGACA,-1.32
3,GCATACGCTAGCTTTCTGGTCTTTGTTCTT,2.13
4,AGAGAGCAGGAGCCACCTGTCACTCAATGC,-1.36
5,CAGAACAGGCTGTTTTCCTATAGATTTGTT,-0.408
6,TGTTTCCACTCCAGCCTCTCCACCAGGGGA,-1.38
7,CTGTGAAAATTGGTACTGGACATGGTCTAA,0.824
8,AGTCAAAGGTCCCCACCACAAAGGCCAGAG,2.8
9,CACAGTATGTTAATGGCAGAATCAAAGGTC,5.19
10,CATAAAGGACTTTCAACCCTGTGATGACCC,4.91
11,GAGTGGGATGGCCATTGTTCATACTGCAGC,0.147
12,CAACACACCTGTGGGTAATTAACTCCCCCT,3.16
13,GGGTGGTTCATTTGCACTTGTTTTTTCAGG,1.49
14,CTTTCCCTCCACCAAGTTTCCCACACTCAG,1.35
15,CTCATGAAGATTCTTTGGTTGGGAATAACA,0.85
16,CAGCAGGGTCTTTTTGACCTGTATCTTGTG,3.15
17,AATTCCAGGGCTGGGTCCAGGAATGTGCTA,-0.0196
18,ATCAAGTCCGAACTCACTACAAACGCCTCT,-1.48
19,GTGCTTCTGGGGTATAAAGGTCAGGGATAG,4.42
20,TGGTGTTAAATCCTATCCTAGGGTTAAAGT,2.93
21,CCATTTCCCATCCCCAGAGCCCCCTTGATG,4.92
22,AAGTGGCAATAAACTCCGTTATCACTCCTG,-1.08
23,AACCCAGGCAATGACTCCAAAGTTCAAACT,4.53
24,CATCTCGTCAAGGTGAAAAGCCTTTTGAAG,0.289
25,ACGCCCACTGCTTTGTTCCCTGGCTCACTG,-1.26

row,Sequence,binding signal (log2 normalized intensity)
1,GTTAGAACAAAGTCCAAATTCCTAACTATG,4.38
2,GTCTGGGAAAGCTGCAGGCATGAGAGGTGC,-1.38
3,TGGGCGAGCCCTCTGATCTGACCCCTTCTT,5.31
4,GACATTCCAGCCTCCAGCTACTCACTCTTC,-1.12
5,ATGAGGCGGTTCATCCAACAGGTGAGGTGG,-1.28
6,GGAACACAAAGAAAGCCAAAGTTCACCCTT,3.16
7,CAACCGGAAGTGGCTAGAGGTCGCGAGAGA,-1.3
8,ATATCCTGACTGCTGACCTTTAAGCCTATA,4.7
9,TAACCCATCTGGGGAAAGTGCAAGGGCCCA,-1.31
10,TTTCAACTGCAGGGGGGTGGGCACCCCTGC,-1.35
11,CAGGTGTAAAGTCTGGCATACAGGGTCCAA,3.64
12,GTTAAAGTCCACATTCTTTAGCATATTACA,1.37
13,GGGAGTAGGGACAGCTAGTCTAGACTTTGC,4.14
14,TCAGGAATCGCATTGCAAAATCCATCTAAA,-1.36
15,ATGGGCAGTCCCTATAGCCTCACTTGCTGA,-1.35
16,TGTCCAAGGGTCACTCGACATTCATCATGA,1.98
17,GGCACAGGAACCTGTTTTACAGGACATAGT,-1.17
18,GAGCCTAGGAGTTCAATGCTTCAGTGAGCC,-1.26
19,GGCTCAGGAGAAGGGCCCATGGGCTTCAGG,-1.32
20,TACTAATCCTCTTCTGTCCTCCTGTGGCCA,0.916
21,GTGAGAACAGAGTCTCCGAGGAACCCAGAC,-1.31
22,TAAAGGGGATTTTCTCAGCTCTCCTCTGCC,-1
23,CCACAGGTCAATCCAGGTTGCTGCCTAGTT,-0.138
24,TGTACACAGTTCAAAGGGCAGACAGGAACA,3.72
25,CATTTCTGTATCCCTGTTATCTGGCAGATA,0.161

row,Sequence,binding signal (log2 normalized intensity)
1,GACTTCAAAGGCATTTCTGGACTTGGATCA,4.28
2,CTCTCTGTATTCCCTCTCTTCAGAATGGCC,1.91
3,TTTAAAAACTTATCTTGTGACCTTTGACTC,8.96
4,CCTCTTTGAGTCTGGTGTTCTCTTGGCCAA,1.63
5,GAGCACTTTTGGTATGCAAGGCATGGTGCT,-1.33
6,CAGCTGCGCGGCCTCCCCAGAGGCTGGTCA,-1.14
7,GGGGAGCGTAAAACCACTGGCCCATTAGAA,-1.25
8,GGTTTTAGGCTATCAGACAGCCACACTTTA,-0.989
9,CAGATGGATTGATAGACTTATCTCAGCCTG,-1.31
10,ACAGCTCCTGAGTCCACATGAGCCTCTTTA,-1.4
11,TTTGACTGGTGTGAGGTCAGTTGATAAACA,1.59
12,CGCCAGGCGGGTTCTGCCATCTCGCAGAAA,-1.33
13,CCCCCTTTTGCTTTCCGTTAGGCTACAGTG,0.887
14,TGTCCTGTGATTAAGGTCAATGGGAAACTA,1.05
15,ATCCAAAGGTCAGTGACAAATGTCAGACAA,3.09
16,TGTGTTTCCTGGATTGTGAAACACAGGACT,0.6
17,CTAATGGAGAGGATGGGGACAAAGGTCAAG,8.12
18,TCCCTGTGGTATTTGCTCTGTCATCAACGT,1.25
19,GCCTAGGTGACAAGGAAAACTACACTCTTG,-1.33
20,CAAACTCAATCCTGGCCTCTGAGGTGTTAA,-0.113
21,TTTGGGTTTGAAGGCTCCGGAAACGTATGA,0.646
22,TTCCTGCATTAACATCAACATGGACTTTGA,9.28
23,TTGTTCCATGCCACAGAATCGCCCCACCCT,4.28
24,CCCCCACCCTGTGTCAGCATCTAAACCTCT,2.65
25,TCGCACGGCAGAACTGGTGACCGGACACAA,-1.07

row,Sequence,binding signal (log2 normalized intensity)
1,CTGTAACACAGTTGCACTCACTAGCATTAG,-1.22
2,TTCAAGGTCCAGCCTACCCACCCACACCTC,3.42
3,TTCTAACCAATGCAGCTGGGAGATAAGATA,0.222
4,TGGCTGCAGAGTGGGAGGCCAAGAGATAAA,-1.31
5,AGGGATTCCTGAAGATCGCAGACTTTGGAC,6.44
6,CCCAAACGAATGGGCAAAACATTCCTAAAC,-1.33
7,ATATCTTTGTCTCAGGAACTTTGTTTGTGT,2.36
8,TGGCAAATATCAGCATGGTATGTGGCTTGC,0.658
9,CAGTATAAACAACACAGAACTAGCCAGACC,-1.28
10,AATTGCTACTTCCGGCGTCGATTAGCTGGG,-0.923
11,CTCATGCTAAAAGTTGAATTCTTGACTTTG,0.997
12,TAACCCCAGTTTAGCAATTTGCTCTCTGCT,0.105
13,AGCTATTGCTCTGCATGGATTAGCCAGCTA,-1.27
14,AAGTGGAGATTTCAGCCGCTTTGAGGTCAA,2.6
15,TGCACAACGACCCTTGCTCTGTTTTCTGAC,2.59
16,CAGCACTGGGTGGGGATAAGAAAAGATCAA,-1.26
17,TATGTGGTGGGTGTGGTGATGGCAGGAGTC,1.45
18,AATTACCATTCTTGAGGACAGGCCAAATCC,-1.27
19,GACCTCTGCCCTACTGTATATCCTGACACA,2.87
20,AGACATTGGCTAAATCATGGGGAGCATCTA,-1.25
21,AACTTTGAAACAAGCCCATCTTCCAGAAAA,-1.29
22,GCTGCAGGAGAGATGGTCAGATTTTATTTA,-1.3
23,TTAGCTCATTTCAGCCTTAACTCAAAAGGC,-1.03
24,TTCTGCCTTATCAGCGGCCCTGTGCTGCCC,0.498
25,CCCCAGTGTCAATTCTCATTCATCCAAGGA,-0.247

row,Sequence,binding signal (log2 normalized intensity)
1,GAGTGCTATCCTCTTATCTGAATGTATGGG,1.22
2,TTATTGATTGCCTTTCATGTACTGTTCAGT,2.05
3,TTTTAAGAGCCCATCCTTGTTTTGGGGGTT,1.32
4,AGCTAACATGTACAGTATTGCGTAAGTTGT,1.51
5,AGATCAAACAGGGACAGATGTTTGGTTGAG,0.0809
6,GCAGTCCATAAATGCTGTTGATAAAGTGAT,-0.542
7,ATCAGTGTACCTGTCCCTACTCAATTATCA,-0.023
8,TGCGCCGCAGCGAATGGTCGCGCCGGGCGC,-1.39
9,TTATCTTCCATGTATACTTATGTAGAAAGA,0.707
10,GTGAAATGCCAGTGGGAAAACAAACTTTCC,-1.2
11,ATTTACTTACCTTTTCTAATCTCTCTCCCC,2.48
12,GAGCAGCCTGGGGTAAAACCAAACTGCAGC,-1.32
13,AGGTCAAACTATCTGAGGTGGTCCAGGGCC,-0.945
14,AGAAAGGCAGAAGGTTCCAGGGAACTGTCC,-1.37
15,ATGCCTTTTCTTTCATGTTGTTTAGTCATG,2.18
16,TGGGCAATAAGCATTCTGTTTCCTACTGAC,-1.25
17,TTTGCTTTTTACCATCTCCAACATGACCAC,1.93
18,AGGCAGCCATTGACGGTATGTGAATGCCTG,-1.04
19,AAACGACTGATTCTCAGGCATCTCTGGGGG,-0.992
20,CTCCCAAAAGGTATTTTTTGAATGACAGTG,0.975
